Results from publication PMC4336329 (PLoS ONE, 2015).
The campaign covered roughly 310,000 compounds. About 14,000 (4.5%) showed an effect of 50% or more. Effects have a minus sign here. Some of the results follow.

Each compound was assayed against human ether-à-go-go-related gene (hERG) potassium channel (human, UniProt Q12809) (assay: primary screen, population patch clamp on CHO cells stably expressing hERG).
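Note: peak tail current of the secondary pulse compared with the same well before compound.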

Chain of human ether-à-go-go-related gene (hERG) potassium channel (Q12809 whole entry, looked up): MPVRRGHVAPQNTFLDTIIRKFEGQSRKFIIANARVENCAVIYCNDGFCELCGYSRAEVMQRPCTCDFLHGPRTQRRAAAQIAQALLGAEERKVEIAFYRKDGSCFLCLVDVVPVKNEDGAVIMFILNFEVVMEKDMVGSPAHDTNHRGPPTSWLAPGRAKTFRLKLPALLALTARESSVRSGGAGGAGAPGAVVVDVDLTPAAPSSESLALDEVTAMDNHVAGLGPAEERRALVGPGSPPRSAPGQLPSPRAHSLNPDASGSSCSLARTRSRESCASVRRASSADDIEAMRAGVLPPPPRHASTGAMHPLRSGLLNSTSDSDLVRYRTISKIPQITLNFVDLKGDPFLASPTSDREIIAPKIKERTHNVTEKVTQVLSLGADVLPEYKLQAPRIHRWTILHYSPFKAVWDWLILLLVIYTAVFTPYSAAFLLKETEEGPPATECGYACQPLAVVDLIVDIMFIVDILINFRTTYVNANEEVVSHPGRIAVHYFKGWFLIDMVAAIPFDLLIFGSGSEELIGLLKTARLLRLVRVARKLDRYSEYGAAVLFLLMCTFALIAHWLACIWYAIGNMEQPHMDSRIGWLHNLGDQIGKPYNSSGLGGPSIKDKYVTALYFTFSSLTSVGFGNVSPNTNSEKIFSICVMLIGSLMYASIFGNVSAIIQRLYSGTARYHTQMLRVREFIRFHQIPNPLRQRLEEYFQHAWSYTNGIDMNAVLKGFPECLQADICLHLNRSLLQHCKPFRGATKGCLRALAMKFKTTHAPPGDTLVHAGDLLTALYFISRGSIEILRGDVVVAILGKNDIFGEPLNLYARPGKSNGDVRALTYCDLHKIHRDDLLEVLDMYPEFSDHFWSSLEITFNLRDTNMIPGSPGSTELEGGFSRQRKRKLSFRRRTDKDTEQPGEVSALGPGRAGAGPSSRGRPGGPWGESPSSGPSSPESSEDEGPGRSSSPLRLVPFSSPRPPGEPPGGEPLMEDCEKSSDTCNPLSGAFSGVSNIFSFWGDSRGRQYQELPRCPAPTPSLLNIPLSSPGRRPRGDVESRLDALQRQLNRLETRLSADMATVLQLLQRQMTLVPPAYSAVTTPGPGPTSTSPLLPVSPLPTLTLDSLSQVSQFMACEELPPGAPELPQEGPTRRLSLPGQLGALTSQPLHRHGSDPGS

SMILES | hERG current change (%, negative = inhibition) at 10uM
COC(=O)N/N=C(\C)c1ccc(-n2ccnc2)cc1 | 7.15%
CCOc1ccccc1N(CC(=O)NCc1ccc(OC)cc1)S(C)(=O)=O | -4.53%
COc1cccc(CN(C(=O)c2ccco2)C(C(=O)NC2CCCC2)c2cccnc2)c1 (stereo not shown) | 7.07%
CC(C)CCN(CCC(C)C)C(=O)Cc1c(O)c2ccccc2[nH]c1=O | 10.7%
COc1ccccc1N1CCN(C(=O)c2ccc(CN3CCc4ccccc4C3)cc2)CC1 | -13.4%
CCC(=O)Nc1ccc(Cl)c(NC(=O)c2ccc([N+](=O)[O-])cc2)c1 | -5.07%
O=[N+]([O-])c1cc(Cl)ccc1NCCNc1ncc(C(F)(F)F)cc1Cl | 8.15%
O=C(COC(=O)C1CSC2(c3ccc(F)cc3)CCC(=O)N12)NC(=O)NC1CCCC1 (stereo not shown) | -4.24%
CC(=O)N1CCN(c2ccc(NC(=O)c3ccco3)cc2Cl)CC1 | 0.303%
CC(CNC(=O)CN1C(=O)c2cccnc2Oc2ccc(Cl)cc21)c1ccccc1 (stereo not shown) | 2.01%
O=C(O)C1CCCN(S(=O)(=O)Cc2ccccc2)C1 (stereo not shown) | -14.5%
Cc1ccc(S(=O)(=O)NCCC(=O)Oc2ccc3ccc(=O)oc3c2)cc1 | -0.545%
C=CCNC(=O)CSc1nnc(-c2ccncc2)n1CCc1ccccc1 | -4.4%
COc1c(Cl)cc(Cl)cc1C(=O)Nc1ccccc1N1CCN(C(C)=O)CC1 | 3.01%
O=C(CSc1ncn[nH]1)Nc1nc(-c2ccccc2)cs1 | 4.9%
Cc1[nH]c2ccc(F)cc2c1CCN(Cc1ccncc1)C(=S)Nc1cccc(F)c1 | -14%
CCc1cccc(NC(=O)Cn2cccc2)c1 | -3.79%
CCOC(=O)c1ccc(NC(=O)Nc2ccc3c4c(cccc24)C(=O)N3CC)cc1 | 12.8%
CN(C)CC/C=C1/c2ccccc2Sc2ccc(Cl)cc21.Cl | -56.8%
CCOC(=O)C1CCCN(c2c(C(=O)c3ccccc3)cnc3ccccc23)C1 (stereo not shown) | -26.5%
OCc1nc2ccccc2n1CCCOc1ccccc1 | -21%
CCOC(=O)N1CCC(NC(=O)CSCc2nc(-c3ccc(OC)c(OC)c3)oc2C)CC1 | -2.5%
NC(=O)CSCc1cccc(Br)c1 | 14.2%
COc1ccc(NC(=O)CN2CCCCC2)cc1.O=C(O)C(=O)O | 3.8%
C=CCOc1cccc(/C=C2\C(=O)N(Cc3ccc(C)cc3)C(C)=C2C(=O)OC)c1 | 10.5%
Cc1cc(C(=O)N2CCN(C/C=C/c3ccccc3)CC2)no1 | -14.5%
Cl.N=c1sccn1CC(=O)NCc1ccc(Cl)cc1Cl | -9.89%
O=C(Nc1ccccc1C(=O)Nc1ccncc1)c1ccc([N+](=O)[O-])cc1 | -4.77%

SMILES | hERG current change (%, negative = inhibition) at 10uM
COC(=O)c1cc(OC)c(OC)cc1NC(=O)c1cccc(C)c1 | -1.82%
CC(C)(C)NC(=O)CC(c1ccccc1)c1ccccc1O (stereo not shown) | -3.84%
Cn1ncc(Br)c1N1C(=O)CCC1=O | 4.51%
Cn1c(CNC(=O)c2ccco2)nnc1SCC(=O)c1ccc(Br)cc1 | -33.9%
Cc1ccc2c([N+](=O)[O-])cccc2n1 | -0.127%
Br.COc1ccc(N=C/C=C2\C=C(c3ccccc3)OC(C)(C)O2)cc1 | -23.7%
C[C@H]1CCC[C@@]2(O[C@@H](CCO)C[C@@H](O)[C@@H]2O)O1 | 4.31%
CCCOc1ccc(N2C(=O)CC(N3CCN(c4ccccc4OC)CC3)C2=O)cc1 (stereo not shown) | -26.3%
COc1cc(CCC(=O)N2CCN(c3ccc([N+](=O)[O-])cc3)CC2)cc(OC)c1OC | -78.4%
Cn1c(=O)c2c(ncn2CC(=O)N2CCN(S(=O)(=O)c3ccc(Cl)cc3)CC2)n(C)c1=O | -2.15%
Cc1cc(NS(=O)(=O)c2ccc(NC(=O)C(C)Oc3ccc4c(C)cc(=O)oc4c3)cc2)no1 (stereo not shown) | -2.43%
O=c1[nH]n(-c2cccc(Cl)c2)c2ncccc12 | 6.21%
O=C(C1CCCN(S(=O)(=O)c2cccc3nsnc23)C1)N1CCc2ccccc2C1 (stereo not shown) | -38.9%
Cc1ccc(NC(=O)NC2CCCCCCC2)cc1C | 11.3%
O=C(CSc1n[nH]c(-c2ccco2)n1)N1c2ccccc2Sc2ccccc21 | 11.2%
CCc1ccccc1NC(=O)C(Cc1cccc(OC)c1OC)c1nn[nH]n1 (stereo not shown) | 7.41%
COc1cc(C(=O)Nc2cc(C(F)(F)F)ccc2N2CCOCC2)ccc1OCC(=O)N1CCOCC1 | -17.6%
COC(=O)c1sccc1NC(=S)N1CCCCC1 | 5.34%
COCC(=O)N1CCC(Oc2ccc(C(=O)NCc3csc(C(C)C)n3)cc2)CC1 | 43.1%
O=C(CN1C(=O)NC2(CCCC2)C1=O)N1CCN(S(=O)(=O)c2ccc(Cl)c(C(F)(F)F)c2)CC1 | -11.8%
COc1ccc(C#Cc2c(C=O)n(C)c3ccccc23)cc1 | 8.7%
COCC1CCN(C(=O)c2ccc(OC3CCN(Cc4ccccn4)CC3)cc2)C1 (stereo not shown) | -10.6%
O=C(N/N=C/c1ccc2c(c1)OCO2)/C(=C/c1ccc2c(c1)OCO2)NC(=O)c1ccccc1 | -20.7%
CCC(C)(C)c1nnc(NC(=O)c2cccc([N+](=O)[O-])c2)s1 | -4.76%
COc1ccc(N(CC(=O)NC2CCCC2)C(=O)CS(=O)CC(=O)Nc2ccc3c(c2)OCO3)cc1 (stereo not shown) | -2.1%
O=C1CC(N2CCc3ccccc32)C(=O)N1c1ccccc1 (stereo not shown) | 10.7%
CCc1ccccc1NC(=O)N1CCc2ccccc2C1 | 8.21%
